The whole screen tested about 390,000 compounds, of which about 930 (0.24%) were called active. The shares of active, inactive and inconclusive entries below differ from those in the screen. Calls come from the whole dose curve; as a rule, active = well fitted activation curve with a large enough effect; inconclusive = small, poorly fitted or top-dose-only effect; inactive = no such curve, though single readings can be large or run the other way. A potency beside an inconclusive call is a rough fit, not a confirmed value.
Experiment: qHTS for Suppressors of FUS Proteinopathy: Primary screen using FUS-linked yeast assay; note: nearly all actives have a fitted effect of over 55% in size
Conditions: S. cerevisiae FUS-expressing, OD600, 24 h; Potency: growth rescue; series mostly up to 76.6 µM
In short: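 Yeast expressing FUS under galactose induction, OD 0.005 in 2% galactose medium; compounds in a dilution series, 24 h at 30C. Growth rescue by absorbance at 600 nm; CP55940 positive control, DMSO negative.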
With `CCCOc1ccc(NC(=O)CC2C(=O)N(C)C(=S)N2Cc2ccc3c(c2)OCO3)cc1` (stereo not drawn) the Potency was inconclusive: 31.6 µM [activator, single point].
For `CCC(C)NC(=O)c1cnn2c(C)c3c(nc12)CCCC3` (stereo not drawn), the Potency was inconclusive: 28.2 µM [activator, partial curve, poor fit].
With `O=C1NC(Cc2ccc(O)cc2)c2nc3cc(F)ccc3c(=O)n2-c2cc3ccccc3cc21` (stereo not drawn) the Potency was inconclusive: 17.8 µM [activator, partial curve, poor fit].
With `CC(=O)/C=C\c1ccccc1OC(=O)c1cc2ccccc2oc1=O` the Potency was “inactive”.
In the case of `CC(=O)N1CC(C)Sc2ccc(S(=O)(=O)NCc3ccc(F)cc3)cc21` (stereo not drawn), the Potency is reported as inconclusive: 10 µM [activator, partial curve, poor fit].
With `COc1ccc(CSc2ccc(-c3nc4ccccn4c3NCc3ccccc3)cc2OC)cc1` the Potency was inconclusive: 25.1 µM [activator, partial curve].
For `COCC1CCN(Cc2c(C(=O)N3CCc4ccccc4C3)nc3ccc(Cl)cn23)C1` (stereo not drawn), the Potency was active: 7.08 µM.
With `CCOc1ccc(CCNC(=O)Cn2nc(-c3ccc(C)cc3)ccc2=O)cc1OCC` the Potency was “inactive”.
For `COc1cc(-c2coc3c(C(=O)NCc4cccc(Cl)c4)cccc23)ccc1O`, the Potency was inconclusive: 35.5 µM [activator, single point].
With `CCN(CC)S(=O)(=O)c1ccc2c(c1)N(CC(=O)N1CCN(c3ccc(F)cc3)CC1)C(=O)CO2` the Potency was inconclusive: 31.6 µM [activator, single point].
In the case of `CCOc1ccc(C(=O)Nc2ccc(S(=O)(=O)Nc3nc(C)cc(C)n3)cc2)cc1OC`, the Potency is reported as inconclusive: 50.1 µM [activator, single point].
In the case of `Cc1ccc(C)c2[nH]c(=O)c(C(c3nnnn3CCc3ccccc3)N3CCOCC3)cc12` (stereo not drawn), the Potency is reported as inconclusive: 31.6 µM [activator, single point].
In the case of `CC(C)(C)OC(=O)NCCCCCc1cn([C@@H](CO)C(=O)NCCCCCCCCCCC(=O)N2CCN(C(=O)OC(C)(C)C)CC2)nn1`, the Potency is reported as inconclusive: 17.8 µM [activator, partial curve].
With `C[C@H]1CN([C@@H](C)CO)S(=O)(=O)c2ccc(Br)cc2O[C@@H]1CN(C)C(=O)Cc1ccccc1` the Potency was inconclusive: 31.6 µM [activator, single point].
In the case of `CC1=C(c2ccc(C)c(C)c2)S(=O)(=O)N(Cc2ccc(C(=O)NC(C)c3ccccc3)cc2)C1=O` (stereo not drawn), the Potency is reported as “inactive”.
With `CCN(c1ccccc1)S(=O)(=O)c1ccc(C(=O)N(CCCN(C)C)c2nc3cc4c(cc3s2)OCO4)cc1` the Potency was inconclusive: 11.2 µM [activator, partial curve].
For `COc1cc(NC(=O)CSc2nc3nc(C)c(Cc4ccc(C)cc4)c(C)n3n2)cc(OC)c1OC`, the Potency was inconclusive: 31.6 µM [activator, single point].
In the case of `COc1cccc(C2C3=C(N=C4SCC(=O)N42)c2ccccc2CC3)c1OC` (stereo not drawn), the Potency is reported as inconclusive: 22.4 µM [activator, partial curve, poor fit].
With `CCO[C@H]1OC(C(=O)N2CCN(Cc3ccc4c(c3)OCO4)CC2)=C[C@@H](c2csc3ccccc23)[C@@H]1CCCO` the Potency was “inactive”.
In the case of `CCc1ccc(C2c3c(oc4ccc(F)cc4c3=O)C(=O)N2c2nc(C)c(C(=O)OC)s2)cc1` (stereo not drawn), the Potency is reported as “inactive”.
In the case of `O=C(NC1CCCCN(Cc2ccc(Cl)cc2)C1=O)C(c1ccccc1)c1ccccc1` (stereo not drawn), the Potency is reported as inconclusive: 28.2 µM [activator, partial curve, poor fit].
For `Cc1ccc(C(=O)c2cc([N+](=O)[O-])ccc2N2CCCCC2)cc1`, the Potency was “inactive”.
With `Cc1cccc(NC(c2ccc(O)cc2)c2ccc3ccc(C)nc3c2O)n1` (stereo not drawn) the Potency was active: 15.8 µM.
In the case of `COC(=O)C1C2CC3c4[nH]c5cc(OC)ccc5c4CCN3CC2CC(OC(=O)CC(C)=O)C1OC` (stereo not drawn), the Potency is reported as inconclusive: 35.5 µM [activator, single point].
With `N#Cc1ccc(C2=CC(=O)C[C@H](c3ccc4c(c3)OCO4)C2)cc1` the Potency was inconclusive: 28.2 µM [activator, partial curve, poor fit].
With `Cc1c(NC(=O)C(C)(C)Oc2ccc(Cl)cc2)cccc1-c1nc2ncccc2o1` the Potency was inconclusive: 50.1 µM [activator, single point].
For `CCOC(=O)N1CCc2c(sc3c2c(=O)n(Cc2ccccc2)c(=O)n3CC(=O)Nc2ccc(C)c(C)c2)C1`, the Potency was “inactive”.
For `COc1cc(C(=S)N2CCOCC2)cc(OC)c1OC(=O)c1ccc(C)cc1`, the Potency was inconclusive: 50.1 µM [activator, single point].
For `Cc1ccc(NC(=O)CCC(=O)N2CCSc3ccccc32)cc1Cl`, the Potency was “inactive”.
For `COC(=O)c1sccc1S(=O)(=O)N(CC(=O)Nc1c(C)cccc1C)c1ccc(C)c(C)c1`, the Potency was inconclusive: 50.1 µM [activator, single point].
For `COc1ccc(C)cc1NC(=O)Cn1c(=O)ccc2cc(S(=O)(=O)N3CCC(C)CC3)ccc21`, the Potency was inconclusive: 31.6 µM [activator, single point].
For `O=C(c1cc(-c2cccs2)nc2ccccc12)N1CCN(S(=O)(=O)c2ccccc2)CC1`, the Potency was inconclusive: 22.4 µM [activator, partial curve, poor fit].
In the case of `COc1ccc(NC(=O)c2c(NCc3sccc3C)sc3c2CCCCC3)c(OC)c1`, the Potency is reported as inconclusive: 31.6 µM [activator, partial curve, poor fit].
With `CCOC(=O)c1nnc(-c2ccccc2)nc1NC` the Potency was “inactive”.
In the case of `Cc1ccc(C)c(OCC(=O)Nc2ccc(S(=O)(=O)Nc3onc(C)c3C)cc2)c1C`, the Potency is reported as inconclusive: 50.1 µM [activator, single point].
For `Nc1c(C(=O)NC2CC2)c2nc3ccccc3nc2n1-c1ccc2c(c1)OCO2`, the Potency was “inactive”.
With `CCN(CCCNC(=O)CSc1cc(=O)n(CC)c2ccccc12)c1cccc(C)c1` the Potency was inconclusive: 39.8 µM [activator, partial curve, poor fit].
For `Cc1ccc(S(=O)(=O)N(C)C[C@@H]2Oc3ccc(NC(=O)Nc4cccc5ccccc45)cc3C(=O)N([C@H](C)CO)C[C@H]2C)cc1`, the Potency was inconclusive: 22.4 µM [activator, single point].
Potency is the fitted concentration of half-maximal effect; tags give direction and shape of the fitted curve.
